# PubChem BioAssay AID488969 (Vanderbilt High Throughput Screening Facility, 2010)
# Over roughly 110,000 compounds, “z-score” has its median near -0.1; the highest 2% begin near 2. Some of the results follow.
# Target: Metabotropic glutamate receptor 8 (Rattus norvegicus) (UniProt P70579)
# Experiment: mGluR8 Gi/Go-coupled signaling modulation – cell-based, rat, thallium flux, HTS, primary screen (AID 488969)
# Details: HEK293 rat mGluR8, GIRK (G protein-gated inwardly rectifying potassium channel) thallium flux, FluoZin2; at 10 µM; stronger effect = higher value; submaximal glutamate (EC20) added with thallium
# Chain of UniProt P70579 (P70579 whole entry, looked up): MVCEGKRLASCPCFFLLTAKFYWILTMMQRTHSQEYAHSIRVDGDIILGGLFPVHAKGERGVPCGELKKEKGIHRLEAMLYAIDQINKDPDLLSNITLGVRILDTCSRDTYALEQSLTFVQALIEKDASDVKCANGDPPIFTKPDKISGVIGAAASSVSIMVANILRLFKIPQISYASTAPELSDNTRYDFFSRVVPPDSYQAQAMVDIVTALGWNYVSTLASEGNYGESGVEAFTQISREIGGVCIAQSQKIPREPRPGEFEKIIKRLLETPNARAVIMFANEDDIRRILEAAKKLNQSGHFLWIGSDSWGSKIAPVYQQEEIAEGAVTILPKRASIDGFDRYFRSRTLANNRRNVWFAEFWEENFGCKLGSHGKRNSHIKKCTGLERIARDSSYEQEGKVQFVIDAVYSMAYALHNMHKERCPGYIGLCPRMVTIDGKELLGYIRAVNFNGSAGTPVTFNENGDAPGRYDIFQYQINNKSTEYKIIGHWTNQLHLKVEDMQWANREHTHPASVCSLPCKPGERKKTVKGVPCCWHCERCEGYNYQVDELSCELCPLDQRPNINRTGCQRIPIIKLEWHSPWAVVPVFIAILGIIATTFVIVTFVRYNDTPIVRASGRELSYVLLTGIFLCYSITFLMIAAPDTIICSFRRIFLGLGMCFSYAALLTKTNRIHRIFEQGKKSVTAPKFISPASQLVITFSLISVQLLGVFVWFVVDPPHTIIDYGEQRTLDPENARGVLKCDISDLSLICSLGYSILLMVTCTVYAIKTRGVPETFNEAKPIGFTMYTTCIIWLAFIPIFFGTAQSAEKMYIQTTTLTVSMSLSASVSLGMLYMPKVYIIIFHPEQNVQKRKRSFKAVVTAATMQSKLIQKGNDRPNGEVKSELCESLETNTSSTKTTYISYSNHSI
row,Compound,z-score
1,CSc1nc(C)cc(OCC(=O)N2CCOCC2)n1,0.387
2,Cc1ccc(-n2c(-c3ccccc3)cc(=O)nc2C)cc1,-0.963
3,CCC(C)(C)NC(=O)CN(C(=O)c1snc(C(N)=O)c1N)c1ccc2c(c1)OCCO2,0.553
4,O=C(Nc1ccccc1)NC1CCS(=O)(=O)C1 (stereo not given),-0.135
5,O=C(Cc1ccccc1)Nc1c(C(=O)N2CCOCC2)cnn1-c1ccccc1,0.0498
6,Cc1cccc(NC(=O)Cn2cnc3ccccc3c2=O)c1C,-0.132
7,CS(=O)(=O)Nc1ccccc1C(=O)N1CCCC1,0.598
8,COC(=O)Cn1c(=O)c2c(nc(Br)n2CC(=O)OC)n(C)c1=O,-0.0502
9,CSc1ncccc1C(=O)OCc1ccc(C#N)cc1,0.318
10,CCOC(=O)c1[nH]c2cc3c(cc2c1NC(=O)CN1CC(C)CC(C)C1)OCO3 (stereo not given),0.332
11,Cc1ccnc(N2CCCC(C(=O)NCc3cccs3)C2)n1 (stereo not given),0.259
12,O=c1c2sc3nc(N4CCOCC4)c4c(c3c2ncn1CCc1ccccc1)CCCC4,0.333
13,CCOC(=O)CC(=O)CSc1nc(-c2ccc3c(c2)OCO3)cc(C(F)(F)F)c1C#N,-0.0481
14,CC(=O)Nc1cccc(NC(=O)c2cc(C)on2)c1,0.686
15,Cc1ccc(S(=O)(=O)NC(=O)N2CCCC(C)(C)C2)cc1,-0.204
16,CC(=O)Nc1ccc(/C=C(\C#N)C(=O)NCc2ccccc2)cc1,-0.138
17,CC(C)OC(=O)/C(=C/c1ccc2c(c1)c1ccccc1n2C)NC(=O)c1ccccc1,0.233
18,CCNS(=O)(=O)c1ccc2c(c1)n(C)c(=O)n2C,-0.0452
19,COC(=O)c1cc(CSc2nnc(NC3CCCCC3)s2)oc1C,0.307
20,COC(=O)CNC(=O)/C=C/c1ccc(OC)cc1,-0.132
21,CNc1nc(OCC(F)(F)F)nc(N2CCN(C34CC5CC(CC(C5)C3)C4)CC2)n1,0.418
22,O=C(COC(=O)/C=C/c1cccc(F)c1)Nc1ccccc1-c1ccccc1,-0.0868

row,Compound,z-score
1,CCOC(=O)c1nnn(-c2ccc(OC)cc2)c1N,-0.142
2,CCCCNC(=O)Nc1cc(C(=O)OC)ccc1C,0.95
3,Cc1nn(-c2ccccc2)c(C)c1/C=N/NC(=O)c1cc(-c2ccc(Cl)s2)[nH]n1,-0.78
4,COc1cc(/C=C2/N=C(C3CCCCC3)OC2=O)cc(OC)c1OC,-0.0279
5,O=C(NCCO)C1(c2ccc(Cl)cc2)CCCC1,0.494
6,C=CCSc1nnc(NC(=O)c2ccc(Cl)nc2)s1,0.00598
7,CNc1c([N+](=O)[O-])cnn1-c1ccc(C)cc1,-0.0888
8,COc1ccc(/C=C(/NC(=O)c2ccc(OC)c(OC)c2)C(=O)NCCc2c[nH]c3ccccc23)cc1,0.00549
9,Cc1ccc(C(=O)NN2CCOCC2)cc1,0.0499
10,CC(C)CC(OC(=O)c1cccs1)C(=O)NCc1cccs1 (stereo not given),0.126
11,COCc1cc(C)nc(N2CCNCC2)c1C#N,-0.204
12,O=C(CS(=O)(=O)Cc1ccccc1)N1CCc2ccccc2C1,0.261
13,O=C(Nc1ncnc2sc3c(c12)CCCCC3)c1ccc(F)cc1,-0.0228
14,Cc1ccc(NC(=O)NC(=O)N(C(C)C)S(C)(=O)=O)nc1,-0.0454
15,Cc1ccccc1C(=O)Nc1ccccc1-c1nnn(CC(=O)Nc2ccc3c(c2)OCCO3)n1,-0.78
16,CCCS(=O)(=O)c1nc(S(=O)(=O)c2ccc(C)cc2)c(NCCCN2CCOCC2)s1,0.117
17,O=C(c1cc2ccccc2oc1=O)N1CCSC1c1ccco1 (stereo not given),0.115
18,O=C(Nc1nccs1)C(NS(=O)(=O)c1ccc(Br)s1)c1ccccc1 (stereo not given),-0.117
19,COC(=O)c1ccccc1NC(=O)c1cc2nc(C3CC3)cc(C(F)(F)F)n2n1,-0.103
20,CCOC(=O)Cn1cnc(-c2ccc([N+](=O)[O-])cc2)c1,-0.164
21,CCOC(=O)CC(=O)CSc1nc(C)cc(-c2cccnc2)c1C#N,-0.182
22,COc1ccc(NC(=O)COC(=O)c2c(-c3ccccc3)noc2C)cc1,-0.0243

row,Compound,z-score
1,COc1cc(OC)c(NS(=O)(=O)c2ccc(Cl)c(C(=O)OC(C)C(=O)N3CCCC3)c2)cc1Cl (stereo not given),-0.51
2,COCC(C)n1c(SCC(=O)NC(=O)Nc2ccc3c(c2)OCCO3)nc2ccccc2c1=O (stereo not given),-1.25
3,COC(=O)c1c(NC(=O)c2cccnc2Cl)sc(C(=O)N(C)C)c1C,0.00718
4,Cc1ccccc1NC(=O)N1C2CCC1CC(O)(c1cccnc1)C2 (stereo not given),-0.936
5,O=S(=O)(Nc1ccc(Cc2ccncc2)cc1)c1ccc(Cl)c(Cl)c1,0.0113
6,O=C(Nc1ccc(Cl)c([N+](=O)[O-])c1)c1ccncc1,-0.0927
7,CC(=O)Nc1cccc(-c2nnc(SCc3ccccc3C#N)n2C)c1,-0.207
8,CCN(CC)C(=O)Cn1cnc2ccccc2c1=O,0.54
9,COC(=O)c1cc([N+](=O)[O-])c(-n2ccnc2)c([N+](=O)[O-])c1,-0.181
10,CCOc1cc([C@H]2[C@@H]3CCCC[C@]3(O)CCN2CC(=O)NCc2ccco2)ccc1O,-0.351
11,CC1=Nc2ccccc2/C1=C/c1sc(=O)n(CC(=O)N2CCCC2)c1O,-0.124
12,COc1cc2c3nnc(-c4ccc(F)cc4)c-3cn(Cc3ccccc3)c2cc1OC,-1.5
13,COc1ccc(NC(=O)c2sc(=S)[nH]c2N)cc1,-0.083
14,CCOc1cc2c(cc1C(C)(C)C)NC(=O)CS2,-0.538
15,Cc1cc(/C=N\NC(=O)COc2cccc3cccnc23)c(C)n1-c1ccccc1,-1
16,CCCNCC1C(Oc2ccc(Cl)cc2)C(=O)N1c1ccccc1C (stereo not given),1.55
17,Cc1cccc(NC(=O)CC2CCC2)c1,0.808
18,CCCN1CNC(=S)N(c2cccc(C)c2C)C1,-0.309
19,CCSc1nc2ccccc2n1C(=O)c1ccc(S(=O)(=O)N2CCCCCC2)cc1,-0.692
20,Cc1cccc(NC(=O)CSc2nnc(CNC(=O)c3ccc(S(=O)(=O)N(C)C)cc3)n2-c2ccccc2)c1,-0.436
21,Cc1ccccc1NC(=O)c1ccc(-c2ccc(Cl)cc2Cl)o1,-0.551
22,O=C1CN(C(=O)COC(=O)CCSc2ccccc2Cl)c2ccccc2N1,-0.22

row,Compound,z-score
1,COc1ccc(C(C)NC(=O)C2CCCO2)cc1OC (stereo not given),0.0559
2,COc1ccc(C(=O)NCC(=O)NC2=NCCS2)cc1,-0.432
3,O=C(O)CCc1ccc(-c2ccc(Br)cc2)n1CC(=O)O,1.29
4,COc1cccc(-c2ccc(SCC(=O)N3CCc4ccccc43)nn2)c1,-0.0256
5,CCS(=O)(=O)N1CCC(C(=O)NCCc2ccc(C)cc2)CC1,0.399
6,Cc1c(Cl)ccc2c1NC(=O)C21NC(CCC(N)=O)[C@H]2C(=O)N(c3ccc(Cl)cc3)C(=O)[C@H]21 (stereo not given in full),0.4
7,O=C(Nc1nnc(SCC(=O)N2CCOCC2)s1)c1ccccc1,-0.215
8,CCOc1ccccc1-c1nc2c([nH]1)c(=O)n(C)c(=O)n2C,-0.0815
9,NC(N)=N/N=C/c1ccccc1,0.654
10,CCN1C(=O)C2(C(C#N)=C(N)Oc3cc(C)oc(=O)c32)c2ccccc21 (stereo not given),-0.425
11,COc1ccccc1-c1nnc(-c2ccc(N3CCOCC3)cc2)o1,-0.18
12,COC(CN(C(=O)CCl)C(C(=O)NC1CCCCC1)c1ccccc1C)OC (stereo not given),-0.0887
13,COC(=O)c1cc(C(=O)OC)cc(N2C(=O)CN=C2Nc2nc(C)cc(C)n2)c1,-0.761
14,CCc1c(-c2ccccc2)nc(N)c(C#N)c1-c1cccs1,0.329
15,c1ccc(-c2ccccc2OCCCCN2CCCCC2)cc1,0.338
16,CCCNC(=O)COC(=O)CCC(=O)c1ccc(F)cc1,-0.419
17,O=C(C1CC(c2ccccc2O)=NO1)N1CCCC1 (stereo not given),-0.33
18,O=C(CNS(=O)(=O)c1ccccc1F)Nc1ccc(N2CCOCC2)cc1,-0.406
19,O=C(C1=C(O)C(=O)N(c2ncccn2)C1c1cccc(Cl)c1)c1ccco1 (stereo not given),-2.95
20,CC(C)[C@H](NC(=O)c1ccccc1)C(=O)OCC(=O)/C=C1/N(C)c2ccccc2C1(C)C,-0.699
21,O=C(O)c1ccc(/C=N/NC(=O)c2ccc(Br)cc2)cc1,0.0326
22,C=CCN(CC=C)C(=O)C(=O)c1cc(C)n(-c2ccc([N+](=O)[O-])cc2)c1C,0.767

row,Compound,z-score
1,CCC(C)NS(=O)(=O)c1ccc(OCC(=O)NCC2CCCO2)cc1 (stereo not given),-0.341
2,Cc1ccc(C(=O)/C=C\C(=O)c2ccc(C)cc2)cc1,-0.118
3,COc1ccccc1NC(=O)CSc1nnc(Cc2cccn2C)n1-c1ccc(F)cc1,-0.461
4,O=C(Nc1ccc(Cl)cc1)c1ccsn1,-0.264
5,CC(/C=N/N1CCN(c2ccccn2)CC1)=C\c1ccccc1,-0.329
6,Cc1c(NC(=O)C2CCCNC2=O)c(=O)n(-c2ccccc2)n1C (stereo not given),0.0924
7,CCCCOC(=O)CSc1nc(N)c(C#N)c(-c2ccc(OCC)cc2)c1C#N,0.05
8,Cc1ccc(SCc2nc3ccccc3n2CC(=O)Nc2ccccc2)cc1,-0.21
9,CC(C)C(C)(C#N)NC(=O)CSc1nc(C2CCCCC2)n(-c2ccccc2)n1 (stereo not given),-0.0651
10,CCOc1ccc(N2CC(C(=O)NCc3cccc(C)c3)CC2=O)cc1 (stereo not given),-0.0878
11,O=C(CCSc1nc(-c2ccco2)cc(C(F)(F)F)n1)Nc1ccc2c(c1)OCO2,-1.34
12,CCOc1ccccc1CNS(=O)(=O)c1ccc2c(c1)oc(=O)n2C,-0.853
13,CC1Cc2ccccc2N1C(=O)CSc1nnc(CNc2ccccc2)o1 (stereo not given),-0.151
14,COc1ccc(C(=O)NNC(=O)c2ccccn2)cc1,-0.0844
15,CCSc1nnc(NC(=O)c2cccc(S(=O)(=O)N(C)c3ccccc3)c2)s1,-0.44
16,CCCCCc1nc2ccccc2c(=O)n1NC(=O)c1c(O)c2cccc3c2n(c1=O)CCC3,0.392
17,Cc1c(C2(O)C(=O)Nc3ccc(F)cc32)c(=O)n(-c2ccccc2)n1C (stereo not given),0.42
18,c1ccc2c(c1)oc1c(Nc3ccc4c(c3)OCO4)ncnc12,0.0202
19,COc1cc(/C=N/NC(N)=S)ccc1OCC(=O)Nc1ccc(C)c(C)c1,-0.102
20,CCCc1cc(=O)[nH]c(SCC(=O)N2CCN(S(=O)(=O)c3ccc(C)cc3C)CC2)n1,0.128
21,Cc1ccc(OCC(=O)NNC(=O)CSc2nnc(-c3ccc(C)cc3)n2C)cc1,0.0512
22,O=C(Nc1ccccc1C(=O)Nc1ccc2c(c1)OCO2)c1cccs1,0.573
